Some of the results follow. The full chains were built here from the parent and the listed change. Inactive controls read about 0.05.
B1: TEV protease; numbered along this chain (parent)
chain: MGESLFKGPRDYNPISSSICHLTNESDGHTTSLYGIGFGPFIITNKHLFRRNNGTLVVQSLHGVFKVKDTTTLQQHLVDGRDMIIIRMPKDFPPFPQKLKFREPQREERICLVTTNFQTKSMSSMVSDTSCTFPSGDGIFWKHWIQTKDGQCGSPLVSTRDGFIVGIHSASNFTNTNNYFTSVPKNFMELLTNQEAQQWVSGWRLNADSVLWGGHKVFMVKPEEPFQPVKEATQL

Variants of: B1
Experiment: raw area under fraction-flipped curve 0-4 h after induction (AUC4h, not background-subtracted), DNA-recorder readout of cleavage of the substrate (dimensionless); higher = more cleavage of the substrate by the protease variant
Details: temperature: 34 °C; time window: 0-4 h after rhamnose induction
Procedure: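 In vivo DNA recorder in E. coli TOP10(DE3) ΔrhaA at 34 °C. Each TEVp single-site mutant (parent TEVp 0) is paired with a single-site variant of the 7-mer TEVs (canonical ENLYFQ|S). The substrate sits between flexible linkers in a Bxb1-sfGFP-TEVs-SsrA fusion, so cleavage stabilises Bxb1 and speeds flipping of a recombination array, read by NGS. The value is the raw area under the fraction-flipped curve over 0-4 h after rhamnose induction (AUC4h), with ≥20 reads per time point. It is not background-subtracted; inactive controls average about 0.047.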
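Further: Bxb1 expression induced with 0.2% (w/v) L-rhamnose at OD600 near 0.5, cultures sampled hourly, flipped fraction per protease–substrate barcode pair counted by paired-end Illumina sequencing.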

Row | Variant | area with substrate ENLYAQS | area with substrate ENLYEQS | area with substrate ENLYGQS | area with substrate ENLYHQS | area with substrate ENLYIQS | area with substrate ENLYKQS | area with substrate ENLYLQS | area with substrate ENLYMQS | area with substrate ENLYQQS | area with substrate ENLYRQS | area with substrate ENLYTQS | area with substrate ENLYVQS | area with substrate ENLYWQS | area with substrate ENLYYQS | area with substrate ENLYDQS | area with substrate ENLYNQS | area with substrate ENLYSQS | area with substrate ENLYCQS | area with substrate ENLYPQS
1 | MGESLFKGPRDYNPISSSICHLTNESDGHTTSLYGIGFGPFIITNKHLFRRNNGTLVVQSLHGVFKVKDGTTLQQHLVDGRDMIIIRMPKDFPPFPQKLKFREPQREERICLVTTNFQTKSMSSMVSDTSCTFPSGDGIFWKHWIQTKDGQCGSPLVSTRDGFIVGIHSASNFTNTNNYFTSVPKNFMELLTNQEAQQWVSGWRLNADSVLWGGHKVFMVKPEEPFQPVKEATQL [T70G] | 0.0754 | 0.0518 | 0.0604 | 0.0597 | 0.0981 | 0.0453 | 0.0644 | 0.0735 | 0.0601 | 0.0374 | 0.0703 | 0.0877 | 0.0471 | 0.0385 | – | – | – | – | –
2 | MGESLFKGPRDYNPISSSICHLTNESDGHTTSLYGIGFGPFQITNKHLFRRNNGTLVVQSLHGVFKVKDTTTLQQHLVDGRDMIIIRMPKDFPPFPQKLKFREPQREERICLVTTNFQTKSMSSMVSDTSCTFPSGDGIFWKHWIQTKDGQCGSPLVSTRDGFIVGIHSASNFTNTNNYFTSVPKNFMELLTNQEAQQWVSGWRLNADSVLWGGHKVFMVKPEEPFQPVKEATQL [I42Q] | 0.0337 | – | 0.0385 | 0.0506 | 0.0367 | – | – | – | 0.0458 | 0.0564 | – | 0.0507 | – | – | 0.016 | 0.0477 | 0.0391 | – | –
3 | MGESLFKGKRDYNPISSSICHLTNESDGHTTSLYGIGFGPFIITNKHLFRRNNGTLVVQSLHGVFKVKDTTTLQQHLVDGRDMIIIRMPKDFPPFPQKLKFREPQREERICLVTTNFQTKSMSSMVSDTSCTFPSGDGIFWKHWIQTKDGQCGSPLVSTRDGFIVGIHSASNFTNTNNYFTSVPKNFMELLTNQEAQQWVSGWRLNADSVLWGGHKVFMVKPEEPFQPVKEATQL [P9K] | 0.0705 | – | 0.072 | – | – | 0.0606 | – | 0.0851 | 0.0519 | – | – | 0.0905 | 0.0848 | – | 0.0697 | – | – | – | –
4 | MGESLFKGPRDYNPISSSICHLTNESLGHTTSLYGIGFGPFIITNKHLFRRNNGTLVVQSLHGVFKVKDTTTLQQHLVDGRDMIIIRMPKDFPPFPQKLKFREPQREERICLVTTNFQTKSMSSMVSDTSCTFPSGDGIFWKHWIQTKDGQCGSPLVSTRDGFIVGIHSASNFTNTNNYFTSVPKNFMELLTNQEAQQWVSGWRLNADSVLWGGHKVFMVKPEEPFQPVKEATQL [D27L] | 0.0628 | – | 0.0596 | 0.057 | – | 0.0609 | 0.0714 | 0.0707 | 0.0416 | 0.0505 | 0.0712 | 0.116 | 0.0681 | 0.0638 | 0.062 | 0.0707 | 0.0772 | 0.0797 | 0.0671
5 | MGESLFKGPRDYNPISSSICHLTNEDDGHTTSLYGIGFGPFIITNKHLFRRNNGTLVVQSLHGVFKVKDTTTLQQHLVDGRDMIIIRMPKDFPPFPQKLKFREPQREERICLVTTNFQTKSMSSMVSDTSCTFPSGDGIFWKHWIQTKDGQCGSPLVSTRDGFIVGIHSASNFTNTNNYFTSVPKNFMELLTNQEAQQWVSGWRLNADSVLWGGHKVFMVKPEEPFQPVKEATQL [S26D] | 0.07 | 0.0628 | 0.0588 | 0.0678 | 0.101 | 0.0693 | 0.0793 | 0.0606 | 0.063 | 0.0889 | 0.0672 | 0.0934 | 0.0925 | 0.0728 | 0.0721 | – | 0.0547 | 0.0787 | –
6 | MGESLFKGPRDYNPISSSICHLTNESDGHTTSLYGIGFGPFIITNKHLFRRNNGTLVVQSLHGVFKVKDTTTLQQHLVDGRDMIIIRMPKDFPPFPQKLKFREPQREERICLVTTNFQTKSMSSMVSDTSCTFPSGDGIFWKHWIQTKDGQCGSPLVSTRDGFIVGIHSASNFTNTNNYFTSVPKNFMELLTNQEAQQWVSGWRLNADSSLWGGHKVFMVKPEEPFQPVKEATQL [V210S] | 0.0829 | 0.0673 | 0.0781 | 0.0618 | 0.135 | 0.0548 | – | 0.0616 | 0.0646 | 0.0504 | 0.0659 | – | 0.108 | 0.0583 | 0.0485 | 0.0549 | 0.0558 | – | 0.0395
7 | MGESLFKGPRDYNPISSSICHLTNESDGHTTSLYGIGFGPFIITNKHLFRRNNGTLVVQSLHGVFKVKDTTTLQQHLVDGRDMIIIRMPKDFPPFPQKLKFREPQREERICLVTTNFQTKSMSSMVSDTSCTFPSGDGIFWKHWIQTKDGQCGSPLVSTRDGFIVGIHSASNFTNTNNYFTSVPKNFMELLTNQEAQQWVSGWRLNADSVLWGGHKVFIVKPEEPFQPVKEATQL [M219I] | 0.059 | 0.0661 | 0.0709 | 0.0644 | 0.0904 | 0.0618 | – | 0.0732 | 0.0576 | 0.0598 | – | – | – | – | 0.069 | 0.0624 | 0.0716 | – | –
8 | MGESLFKGPRDYNPISSSIPHLTNESDGHTTSLYGIGFGPFIITNKHLFRRNNGTLVVQSLHGVFKVKDTTTLQQHLVDGRDMIIIRMPKDFPPFPQKLKFREPQREERICLVTTNFQTKSMSSMVSDTSCTFPSGDGIFWKHWIQTKDGQCGSPLVSTRDGFIVGIHSASNFTNTNNYFTSVPKNFMELLTNQEAQQWVSGWRLNADSVLWGGHKVFMVKPEEPFQPVKEATQL [C20P] | 0.0691 | 0.0503 | 0.0521 | 0.0535 | 0.0568 | 0.0474 | 0.0603 | 0.0579 | 0.052 | 0.0466 | 0.0631 | 0.0758 | 0.0495 | – | 0.0419 | 0.0451 | – | 0.0511 | 0.0432
9 | MGESLFKGPRDYNPISSSICHLTNESDGHTTSLYGIGFGPFIITNVHLFRRNNGTLVVQSLHGVFKVKDTTTLQQHLVDGRDMIIIRMPKDFPPFPQKLKFREPQREERICLVTTNFQTKSMSSMVSDTSCTFPSGDGIFWKHWIQTKDGQCGSPLVSTRDGFIVGIHSASNFTNTNNYFTSVPKNFMELLTNQEAQQWVSGWRLNADSVLWGGHKVFMVKPEEPFQPVKEATQL [K46V] | 0.0685 | 0.096 | 0.0598 | 0.0365 | – | 0.0675 | 0.0603 | – | 0.0704 | 0.0555 | – | 0.0337 | – | 0.061 | 0.0462 | 0.0614 | – | – | 0.0628

Reference: the supplement of paper PMC12217912
